In one assay the test system is HSkMC. The experiment in a line: cytotoxicity call (relative viability < 0.9). As to conditions: 10 µM.
A further assay relates to HepG2. The experiment in a line: cytotoxicity call (relative viability < 0.9). The conditions noted are these: 10 µM.
The subject of the next assay is S. aureus RN4220. The experiment in a line: growth inhibition call (relative growth <= 0.2). The conditions noted are these: 50 µM.

The other results are listed elsewhere or left out.

As for `O=C(c1ccncc1)N1C[C@H]2[C@@H](c3ccccc31)[C@@H](CO)N2C(=O)CN1CCOCC1`, the cytotoxicity call in the assay with HSkMC and with HepG2 was “inactive” each time. Besides, the growth inhibition call with S. aureus RN4220 is “inactive”.
Regarding `NS(=O)(=O)c1ccc(Cl)c(S(N)(=O)=O)c1`, the cytotoxicity call with HSkMC and in the assay with HepG2 was “inactive” throughout. Besides, the growth inhibition call in the assay on S. aureus RN4220 was “inactive”.
Consider `CCCc1nc2c(=O)n(C)c(=O)[nH]c2n1C`, for which the cytotoxicity call with HSkMC and in the assay with HepG2 was “inactive” throughout. Moreover, the growth inhibition call in the assay with S. aureus RN4220 is “inactive”.
With `C[C@@H]1CCCCO[C@H](CN(C)CC2CCCCC2)[C@@H](C)CN([C@H](C)CO)C(=O)c2cc(NC(=O)NC3CCCCC3)ccc2O1`, the cytotoxicity call in the assay on HSkMC and in the assay on HepG2 was “inactive” in each case. For the same compound, the growth inhibition call with S. aureus RN4220 was “inactive”.
For the compound `CCOC(=O)Cn1cc(F)c(=O)[nH]c1=O`, the cytotoxicity call with HSkMC and in the assay on HepG2 was “inactive” throughout. Further, the growth inhibition call in the assay on S. aureus RN4220 is “inactive”.
Regarding `COc1cc(OC)cc(-c2ccc([C@H]3CC(=O)C[C@@H](c4ccccc4)C34C(=O)OC(C)(C)OC4=O)cc2)c1`, the cytotoxicity call in the assay with HSkMC and in the assay with HepG2 was “inactive” each time. Moreover, the growth inhibition call in the assay with S. aureus RN4220 is “inactive”.
With `Cc1noc(C)c1S(=O)(=O)N(C)C[C@@H]1OCCCC[C@H](C)Oc2ccc(NC(=O)Nc3ccc(F)cc3)cc2C(=O)N([C@H](C)CO)C[C@H]1C`, the cytotoxicity call in the assay on HSkMC and in the assay with HepG2 was “inactive” in each case. The growth inhibition call in the assay with S. aureus RN4220 was “inactive”.
In the case of `CNC[C@@H]1Oc2ccc(NC(=O)Cn3cnnn3)cc2CC(=O)N([C@@H](C)CO)C[C@H]1C`, the cytotoxicity call in the assay on HSkMC (human skeletal muscle cells) was “inactive”. In addition, the cytotoxicity call in the assay with HepG2 was “active”. The growth inhibition call with S. aureus RN4220 was “inactive”.
For the compound `C[C@@H]1CN([C@@H](C)CO)C(=O)c2cc(C#Cc3cccnc3)cnc2O[C@H]1CN(C)Cc1ccc(F)cc1`, the cytotoxicity call in the assay with HSkMC and in the assay with HepG2 was “inactive” in each case. Moreover, in the assay on S. aureus RN4220, the growth inhibition call was “inactive”.

These data come from the antibiotic and cytotoxicity screens of Wong et al. (2023).
